From PubChem BioAssay AID485344 (National Center for Advancing Translational Sciences (NCATS), 2010) come the findings set out here.

Molecules are shown by their SMILES. Out of some 340,000 compounds screened, about 6,900 (2%) were called active. Rule as the data show it: active = inhibition above about 30%; inactive = below that, where a call was filed. This is a selection; strong and weak results do not stand in their true shares. Entries without a call were filed so in the source.

This test concerns the target D(2) dopamine receptor (Homo sapiens) (UniProt P14416). Nature of the test: HTS Assay for Allosteric Antagonists of the Human D2 Dopamine Receptor: Primary Screen for Antagonists. Also: 0% is about no effect. To be noted: HEK293 TREx D2 cells, calcium flux, dopamine EC80; at 10 µM; stronger effect = higher value. Put shortly: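 Dopamine at EC80 is the agonist stimulus; test compounds precede it by 180 s. Calcium flux read kinetically in a force-coupled, inducible HEK293 T-REx D2 cell line.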
Sequence of UniProt P14416 (P14416 whole entry, looked up): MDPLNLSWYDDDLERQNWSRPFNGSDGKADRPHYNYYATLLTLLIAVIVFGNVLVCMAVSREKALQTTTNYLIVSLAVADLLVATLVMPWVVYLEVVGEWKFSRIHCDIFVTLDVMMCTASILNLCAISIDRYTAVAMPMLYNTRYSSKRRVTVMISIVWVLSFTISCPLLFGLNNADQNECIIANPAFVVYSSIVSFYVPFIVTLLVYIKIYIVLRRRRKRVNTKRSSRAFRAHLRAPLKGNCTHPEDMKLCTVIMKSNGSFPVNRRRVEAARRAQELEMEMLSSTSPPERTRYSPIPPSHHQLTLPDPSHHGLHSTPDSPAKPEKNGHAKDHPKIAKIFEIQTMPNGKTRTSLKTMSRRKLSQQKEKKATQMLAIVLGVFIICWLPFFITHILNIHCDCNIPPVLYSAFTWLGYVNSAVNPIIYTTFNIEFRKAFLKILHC
As a reminder, the inhibition is the change of the read-out against control, counted positive when it falls. As for `CCCS(=O)(=O)N1CCC(n2c(C)nc3cccnc32)CC1`, the inhibition stood at 3.87%.

On to `CCN(C(=O)CSc1nc2ccccc2n1CC(=O)N(C)C1CCCCC1)c1ccccc1`, for which the inhibition was -14%.

Turning to `CCOC(=O)c1cc(-c2ccccc2)n(CCC(=O)NCCc2ccccc2)c1C`, the inhibition was found to be 6.1%.

On to `CCc1ccc(C(=O)c2cn(CC(=O)Nc3cc(OC)ccc3OC)c3ccc(Cl)cc3c2=O)cc1`, for which the inhibition was -2.15%.

For the compound `COc1ccc(CNC(=O)c2cnc(N3CCCC3)nc2C)c(OC)c1`, the inhibition was -18.2%.

Turning to `Cc1ccc(NC(=O)CCC(=O)N2Cc3ccccc3Oc3ncccc32)cc1Cl`, the inhibition came to 5.81%.

With `CCOC(=O)c1cnc2ccc(OC)cc2c1Nc1ccc(OCc2ccccc2Cl)cc1`, the inhibition stood at 11.6%.

For `COc1ccccc1CNC(=O)C(NS(=O)(=O)c1ccc2c(c1)CCN2C(C)=O)C(C)C` (centres undefined), the inhibition was -5.3%.

For `COc1ccc(-c2nc3sc(CCNC(=O)Cc4ccccc4)c(C)n3n2)cc1`, the inhibition stood at 12.2%.

`COc1ccc(C2=NS(=O)(=O)N(C)C(C(=O)NC(C)c3ccccc3)=C2)cc1` (centres undefined): the inhibition was determined as 3.89%.

For the compound `COc1ccc(C)cc1NC(=O)c1nnn(Cc2cccc(Br)c2)c1N`, the inhibition is -15.5%.

In the case of `Cc1ccc(-c2nc3c(c(=O)c4ccccc4n3C)c(=O)n2Cc2ccco2)cc1`, the inhibition is active: 35.6%.

Regarding `Cc1nn(C)c2c1c(-c1ccccc1)cc(=O)n2Cc1ccc(F)cc1`, the inhibition turned out to be 13.9%.

For the compound `COc1ccc(-n2cc(-c3ccc4c(c3)OCO4)n(CC(=O)Nc3cc(Cl)ccc3C)c2=O)cc1`, the inhibition is 2.9%.

Turning to `COc1ccc(-n2nc3ccc(NC(=O)c4cccc(OCCC(C)C)c4)cc3n2)cc1`, the inhibition was found to be 7.75%.

Turning to `CCN1CCN(c2nc(-c3ccccc3Cl)nc3ccccc23)CC1`, the inhibition was active: 38.5%.

As for `CCOc1ccc(CNC(=O)C2CCN(c3nc4ccccc4nc3C(F)(F)F)CC2)cc1OC`, the inhibition turned out to be 4.74%.

`CCc1c(C)sc2c1CCN(Cc1ccccc1C#N)C2c1ccccc1` (centres undefined): the inhibition was found to be 3.66%.

Regarding `CN1/C(=C\C(=O)C(F)F)C(C)(C)c2ccccc21`, the inhibition was active: 46.7%.

In the case of `CC1CC(=O)Nc2ccccc2N1C(=O)COc1cc(Cl)ccc1Cl` (centres undefined), the inhibition is active: 30.4%.

Regarding `CC1CCN(c2oc(-c3cccs3)nc2S(=O)(=O)c2ccccc2)CC1`, the inhibition was 1.8%.

As for `CCOC(=O)c1cnc2c(ccc3ccccc32)c1Nc1cccc(Cl)c1`, the inhibition amounted to 7.76%.

As for `COc1ccc(CCNC(=O)c2cnc3sc(N4CCOCC4)nn3c2=O)cc1`, the inhibition is 2.74%.

As to `Cc1cccc(C)c1NS(=O)(=O)c1ccc2c(c1)[C@H]1C=CC[C@H]1[C@@H](c1ccc(Cl)cc1)N2`, the inhibition is 25.3%.

`CCn1c(CC2C(=O)Nc3ccccc32)nc2ccccc2c1=O` (centres undefined): the inhibition is 1.16%.

With `CC1CCCCN1S(=O)(=O)c1cc2c(=O)nc3ccccn3c2cc1Cl` (centres undefined), the inhibition came to 2.54%.

With `CCOc1ccc(C2C(C(=O)Nc3ccccc3OC)=C(C)Nc3c(C(=O)Nc4cccc(C)c4)cnn32)cc1` (centres undefined), the inhibition is -2.9%.

Turning to `O=C1CC(c2nnc(Cc3cccc(Cl)c3)o2)CN1c1ccccc1` (centres undefined), the inhibition was 19%.

Regarding `COc1ccc(-n2c(=O)c3ccc(C(=O)NCc4ccc(C)cc4)cc3n(Cc3cccc(Cl)c3)c2=O)cc1`, the inhibition was -2.69%.

`Cc1ccc2c(c1)cc1c(=O)n(Cc3ccc(Cl)cc3)nc(C)n12`: the inhibition is 16.1%.

Consider `COc1cccc(-c2cc(C(=O)Nc3ccc(Br)c(C)c3)[nH]n2)c1`, for which the inhibition is -3.08%.

Take `CCC1CN(C(=O)Nc2cccc(OC)c2)c2ccccc2O1` (centres undefined): the inhibition came out at 7.85%.

For `CC(=O)Nc1ccc(S(=O)(=O)NC2(C(F)(F)F)NC(=O)N(c3ccccc3F)C2=O)cc1` (centres undefined), the inhibition is 9.74%.

Consider `COc1ccc2c(c1)c1c(c(=O)n(-c3ccc(F)c(Cl)c3)c(=O)n1CC(N)=O)n2C`, for which the inhibition was found to be 7.94%.

In the case of `CCOc1ccc(-c2c(C)nn3c(C)c(C(=O)NCCc4ccccc4)cnc23)cc1OCC`, the inhibition was -12%.

Take `COc1cccc2c1cc1c(=O)n(CC(=O)O)nc(C)n12`: the inhibition is -8.53%.

As for `CCOc1ccc(Nc2sc(C(=O)c3ccc4c(c3)OCO4)c(N)c2S(=O)(=O)c2ccc(C)cc2)cc1`, the inhibition is -0.764%.

As to `COc1ccc(-c2cc(C(F)(F)F)nc(NCc3ccc(Cl)cc3)n2)cc1`, the inhibition is -6.38%.

On to `Cn1nc(C(=O)N2CCN(c3ccc(Cl)cc3)CC2)c2c1-c1ccccc1S(=O)(=O)C2`, for which the inhibition is -23.3%.

On to `O=C(Nc1cc(-c2nc3ccccc3o2)ccc1Cl)c1ccc(Br)o1`, for which the inhibition was -7.49%.

Regarding `COCCCNCCOc1ccccc1-c1ccccc1`, the inhibition is active: 92.5%.

As for `COc1cc(-c2noc(-c3ccc(N(C)C)c([N+](=O)[O-])c3)n2)cc(OC)c1OC`, the inhibition came out at 25.9%.

For the compound `Cc1ccc(CCNc2nc3c(S(=O)(=O)c4ccccc4)nnn3c3ccsc23)cc1`, the inhibition is -3.81%.

In the case of `COc1cccc(Cc2nc3ccccc3nc2SCC(=O)N2CCN(c3ccccc3)CC2)c1`, the inhibition came out at 10.2%.

As for `O=C(Cn1c(-c2cccs2)cc2cc(F)ccc21)N1CCN(c2cccc(Cl)c2)CC1`, the inhibition was 10.9%.

As to `CSc1ccc2c(c1)N(CCC1CCCCN1C)c1ccccc1S2` (centres undefined), the inhibition was active: 98.1%.

In the case of `COc1ccc(OC)c(NC(=O)c2c(NCc3ccc(OC)c(OC)c3)sc3c2CCC3)c1`, the inhibition came to 8.34%.

For `CCOc1ccccc1NC(=O)Nc1cc(C(=O)NCc2ccc(C)cc2)ccc1N1CCCC1`, the inhibition is -2.99%.

As for `O=C(Nc1ccc(Br)cc1F)C(NS(=O)(=O)c1cccc2nsnc12)c1ccccc1` (centres undefined), the inhibition was -2.37%.

With `Cc1ccc(NC(=O)c2cc3c(-c4ccccc4)nn(-c4ccccc4)c3s2)cc1`, the inhibition was 17.8%.

In the case of `COc1ccc(NC(=O)Cn2c(=O)n(CC(=O)NCCc3ccccc3)c(=O)c3ccccc32)cc1`, the inhibition was -4.77%.

On to `COc1ccc(CNC(=O)c2cc3c(-c4ccccc4F)nn(C)c3s2)cc1`, for which the inhibition is 10.9%.

Turning to `CCc1ccc(NC(=S)NC2CC3CCCC(C2)N3Cc2ccccc2)cc1` (centres undefined), the inhibition was active: 40.3%.

For `CCc1ccc(NS(=O)(=O)c2ccc3[nH]cc(C(=O)NCc4ccc(C)cc4)c(=O)c3c2)cc1`, the inhibition is -0.447%.

With `CCOc1ccc(-n2c(=O)c3c4c(sc3n(Cc3cccc(C)c3)c2=O)CCCC4)cc1`, the inhibition was -7.38%.

Take `Clc1ccc2nc(Nc3ccccc3Cl)nc(-c3ccccc3)c2c1`: the inhibition was -4.35%.

With `Cc1nn(-c2ccccc2)c(C)c1C(=O)OCC(=O)N(C)C1CCS(=O)(=O)C1` (centres undefined), the inhibition was active: 38.2%.

Turning to `O=C(C1CCCN1C(=O)c1cccs1)N1CCN(Cc2ccc3c(c2)OCO3)CC1` (centres undefined), the inhibition is active: 36.6%.

As for `CCc1ccc(NCc2cc3cc4c(cc3n(CC(=O)Nc3ccccc3Cl)c2=O)OCO4)cc1`, the inhibition is -4.65%.

With `CCOCCCNC(=O)C1CCN(c2cc(C)nc3c(-c4ccc(Cl)cc4)c(C)nn23)CC1`, the inhibition was 13.5%.

Turning to `COc1ccc(N2CCN(C(=O)c3ccc4c(=O)n(CCc5ccc(OC)c(OC)c5)c(=O)[nH]c4c3)CC2)cc1`, the inhibition was -13.4%.

As to `O=S(=O)(c1ccc(Cl)cc1)N1CCCC(c2nc(-c3ccc(F)cc3)no2)C1` (centres undefined), the inhibition is active: 51.5%.

As for `CCNC(=O)c1c(C)oc2ncn(C)c(=O)c12`, the inhibition was -1.29%.

For the compound `CCc1ccc(CNC(=O)CSc2cc(=O)n(CC)c3ccccc23)cc1`, the inhibition was -4.12%.

As to `Cc1nn(CCCC(=O)Nc2cc(C(F)(F)F)ccc2Cl)c(=O)c2c1sc1ccccc12`, the inhibition was determined as 11.9%.

As to `Cc1cc(C)cc(N(C(=O)c2ccco2)C(C(=O)NC2CCCC2)c2ccncc2)c1` (centres undefined), the inhibition was active: 36.6%.

For the compound `CCc1nn(CC(=O)N(CC)Cc2ccccc2)c(=O)c2cc3occc3n12`, the inhibition was -4.52%.

With `COc1ccc(NC(=O)CN2C(=O)CCc3cc(S(=O)(=O)N4CCOCC4)ccc32)c(OC)c1`, the inhibition was found to be 5.78%.

As to `CCOc1ccccc1NC(=O)Cn1c(=O)n(-c2ccccc2)c(=O)c2c1c1cc(C)ccc1n2C`, the inhibition came to 2.44%.

Turning to `CC(C)CCn1c(CN2CCN(c3cccc(Cl)c3)CC2)nc2c1c(=O)n(C)c(=O)n2C`, the inhibition was active: 47%.

In the case of `CCN(C(=O)CSc1nnc(-c2cc3occc3n2C)n1-c1ccccc1C)c1cccc(C)c1`, the inhibition worked out at 8.39%.

On to `COc1ccc(-c2cn3c(n2)sc2cc(C(=O)NCCCN4CCCCC4)ccc23)cc1`, for which the inhibition is 18.1%.

With `COc1ccc(CN2CCN(c3ccccc3OC)CC2)cc1OC`, the inhibition was active: 66%.

Consider `O=C(CSc1nc(-c2ccccc2)c2ccccc2n1)Nc1ccc(F)cc1`, for which the inhibition was 1.9%.

Turning to `Cc1cc(C)c(S(=O)(=O)NCCc2cc3ccc(C)cc3[nH]c2=O)c(C)c1`, the inhibition is 17%.

On to `CC1=C(C(=O)N2CCCCC2)C(c2cccc(Cl)c2)n2c(nc3ccccc32)N1` (centres undefined), for which the inhibition was determined as 18.3%.

Regarding `CCOc1ccc(C(CC(=O)O)NC(=O)C(CC)c2ccccc2)cc1` (centres undefined), the inhibition is active: 35.3%.

As for `O=C(Nc1cc(Cl)cc(Cl)c1)N1CCCN(Cc2ccccc2)CC1`, the inhibition was active: 86.6%.

For `COc1ccc(-c2c(C#N)c(SCC(=O)Nc3ccc(Br)cc3)nc(C)c2C(=O)Nc2ccccc2)cc1`, the inhibition was 18.9%.

As to `O=C(CN(c1cc(C(F)(F)F)ccc1Cl)S(=O)(=O)c1ccccc1)NCCc1ccccc1`, the inhibition was -16.4%.

On to `COC(=O)c1ccccc1NC(=O)c1cc2c(s1)-c1ccccc1OC2`, for which the inhibition is -7.2%.

For the compound `Cc1cc(C)c(Cn2c3ccccc3c3cnn(CC(=O)NCc4ccc(Cl)cc4)c(=O)c32)c(C)c1`, the inhibition was found to be 8.21%.

As for `O=C(Nc1nnc(S(=O)(=O)N2CCCCC2)s1)c1ccc(F)cc1`, the inhibition amounted to 14.1%.

As for `CCOc1ccc(NC(=O)c2cc(S(=O)(=O)N3CCCC3)c[nH]2)cc1`, the inhibition stood at 22.9%.

On to `CC1=C(C(=O)Nc2ccccc2C)C(c2ccco2)n2ncnc2N1` (centres undefined), for which the inhibition is -22.1%.

As for `Cc1noc(Cn2c(=O)c3ccccc3n(CC(=O)Nc3ccc(F)cc3F)c2=O)n1`, the inhibition was -0.447%.

Turning to `Cc1ccc(CNC(=O)Cn2cc(S(=O)(=O)Cc3cccc(Cl)c3)c3ccccc32)cc1`, the inhibition came to 24.5%.

For the compound `COc1ccc(-c2nc3nc(C)cc(Nc4cccc(C(F)(F)F)c4)n3n2)cc1`, the inhibition came out at 11.2%.

In the case of `O=C(CCCc1nc(-c2ccccc2)no1)Nc1cc(C(F)(F)F)cc(C(F)(F)F)c1`, the inhibition stood at 16.8%.

Take `COc1ccc(NC(=O)COc2ccc(S(=O)(=O)NC3CCCCC3)cc2)c(OC)c1`: the inhibition was -9.19%.

In the case of `CCCCN(C)C1=CC2=CC(=C(C#N)C#N)CCC2CC1` (centres undefined), the inhibition is active: 73.4%.

`Cc1ccc(NC(=O)c2cnc(N3CCCCC3)c3ccccc23)cc1Cl`: the inhibition is -15.1%.

Turning to `COC(=O)c1scc(-c2ccc(C)cc2)c1S(=O)(=O)Nc1cccc(Cl)c1C`, the inhibition was -2.69%.

Take `Cc1ccc(OCCn2cc(C(=O)c3ccco3)c3ccccc32)cc1C`: the inhibition is 8.4%.
